# Data reported in the BET-seq Pho4 binding data (Le et al. 2018).
# This is one part of the list. These are noisy estimates, calculated here from bound and input reads.
# Target: T1, Pho4 (S. cerevisiae) (UniProt P07270)
# T1 sequence: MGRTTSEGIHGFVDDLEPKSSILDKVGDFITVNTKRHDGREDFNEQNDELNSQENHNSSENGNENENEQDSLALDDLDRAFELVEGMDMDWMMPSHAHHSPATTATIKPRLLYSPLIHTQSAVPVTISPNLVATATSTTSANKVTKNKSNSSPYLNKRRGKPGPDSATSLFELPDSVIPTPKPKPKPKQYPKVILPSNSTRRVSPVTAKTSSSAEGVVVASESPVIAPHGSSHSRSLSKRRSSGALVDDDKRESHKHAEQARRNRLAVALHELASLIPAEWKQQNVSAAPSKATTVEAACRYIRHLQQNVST
# Test: relative binding free energy (BET-seq); higher = weaker binding
# Conditions: reference: library average
row,Sequence,relative binding free energy
1,TTTGTCACGTGATTCC,0.36 kcal/mol
2,AGTAACACGTGGAGCG,0.05 kcal/mol
3,CTTAGCACGTGATGTT,0.02 kcal/mol
4,TCCTGCACGTGATGGT,0.05 kcal/mol
5,TTATGCACGTGTTGAT,-0.05 kcal/mol
6,CGAGTCACGTGTTGGA,0.08 kcal/mol
7,AATGGCACGTGTAGGT,-0.02 kcal/mol
8,ATTTGCACGTGTTTAA,-0.2 kcal/mol
9,AGCTTCACGTGAGGTG,0.47 kcal/mol
10,GTCGACACGTGTTTTG,0.02 kcal/mol
11,GAATTCACGTGGGTTC,0.26 kcal/mol
12,TCGGGCACGTGTTCGA,0.05 kcal/mol
13,TTTAACACGTGGAATG,0.11 kcal/mol
14,CTAGGCACGTGGGGCT,-0.37 kcal/mol
15,AGTGTCACGTGTGGTT,0 kcal/mol
16,TTAGCCACGTGTAAGT,0.08 kcal/mol
17,ATGTTCACGTGGGTGG,0.19 kcal/mol
18,CATTGCACGTGAGTTT,0.13 kcal/mol
19,TTGAGCACGTGTATAA,0.09 kcal/mol
20,ATAAGCACGTGGGGGT,-0.18 kcal/mol
21,TTGAACACGTGTTTAT,0.04 kcal/mol
22,ATTGTCACGTGGCTGT,0.08 kcal/mol
23,GTTTACACGTGTTAGA,0.24 kcal/mol
24,ATATGCACGTGTGGGA,-0.01 kcal/mol
25,GTTTTCACGTGTGCGC,0.46 kcal/mol
26,TTGTACACGTGGTTTG,0.06 kcal/mol

row,Sequence,relative binding free energy
1,AGGGCCACGTGATGAG,0.06 kcal/mol
2,ATATTCACGTGTAGCT,0.16 kcal/mol
3,TAGTTCACGTGAGTAT,0.53 kcal/mol
4,TTTTCCACGTGTTGAA,0.03 kcal/mol
5,CGGACCACGTGTAGGT,0.14 kcal/mol
6,TACGTCACGTGTAGCG,0.16 kcal/mol
7,CGTCACACGTGGTGGG,0.03 kcal/mol
8,ATAATCACGTGGGTGT,-0.11 kcal/mol
9,GTGCACACGTGAGAGG,0.36 kcal/mol
10,TAAATCACGTGCTGGG,0 kcal/mol
11,GTGGGCACGTGGAACT,0.06 kcal/mol
12,TTTATCACGTGTCGAG,0.11 kcal/mol
13,ACTGTCACGTGTTTTG,-0.01 kcal/mol
14,GTATTCACGTGCGTTG,0.18 kcal/mol
15,TGGGGCACGTGTAGGC,-0.05 kcal/mol
16,ATGTTCACGTGGTGCT,0.14 kcal/mol
17,GACCTCACGTGGTGGG,0.39 kcal/mol
18,AAAAGCACGTGGGCGT,-0.12 kcal/mol
19,GTTCTCACGTGTAGGG,0.29 kcal/mol
20,CGTATCACGTGTGGAG,0.2 kcal/mol
21,TAGGTCACGTGTAATC,0.24 kcal/mol
22,GTTAACACGTGCGGGG,0.01 kcal/mol
23,TTGGACACGTGCTAGG,-0.05 kcal/mol
24,AAGGACACGTGGGGAG,0 kcal/mol
25,CGGGGCACGTGGGTAT,-0.16 kcal/mol
26,AGGGGCACGTGGATGT,0 kcal/mol

row,Sequence,relative binding free energy
1,GGATACACGTGAGCGT,0.35 kcal/mol
2,TACGTCACGTGTCTGG,0.13 kcal/mol
3,TTTTGCACGTGTCTCT,-0.04 kcal/mol
4,TAGGTCACGTGATGCA,0.14 kcal/mol
5,AGTTGCACGTGCTGGA,0.01 kcal/mol
6,GGTCACACGTGGGTCT,-0.06 kcal/mol
7,GAATACACGTGGTTTG,-0.02 kcal/mol
8,GGTTACACGTGTAAAT,0.4 kcal/mol
9,TGTTGCACGTGGGATC,-0.09 kcal/mol
10,CGTTACACGTGGCGAG,0.15 kcal/mol
11,GGGCGCACGTGGTGTC,-0.16 kcal/mol
12,TGGATCACGTGGTGGG,0.17 kcal/mol
13,GTGGGCACGTGGAAGC,0.05 kcal/mol
14,TTATTCACGTGGCTCG,0.21 kcal/mol
15,GAAAACACGTGTTGGG,0.19 kcal/mol
16,GTAGGCACGTGTTACG,-0.09 kcal/mol
17,AGGGCCACGTGGAGGT,-0.1 kcal/mol
18,GTTTACACGTGGACGT,0.1 kcal/mol
19,CGCGTCACGTGGGGCG,-0.12 kcal/mol
20,ATACGCACGTGTGGGA,-0.06 kcal/mol
21,ATTTGCACGTGCGGGC,0.03 kcal/mol
22,GTGGTCACGTGCGGTC,0.2 kcal/mol
23,AGAATCACGTGTCAGG,0.22 kcal/mol
24,ATTAGCACGTGAGTAG,0.17 kcal/mol
25,AATAACACGTGTTTGT,-0.05 kcal/mol
26,AATAACACGTGTGTTT,-0.15 kcal/mol

row,Sequence,relative binding free energy
1,TGGTTCACGTGGACTT,0.24 kcal/mol
2,AATAGCACGTGAGTGG,0.03 kcal/mol
3,GTAGGCACGTGATTTA,-0.03 kcal/mol
4,ATGGACACGTGTGTCT,-0.03 kcal/mol
5,TAGTGCACGTGCATTG,-0.13 kcal/mol
6,GGGGGCACGTGGAGTC,-0.07 kcal/mol
7,AAGATCACGTGGAGCG,0.29 kcal/mol
8,AGAGGCACGTGGAGAG,0.03 kcal/mol
9,CTTAACACGTGTGGCG,0.15 kcal/mol
10,AGGGGCACGTGCGATG,-0.17 kcal/mol
11,ACGAGCACGTGTAGTG,-0.02 kcal/mol
12,TGATGCACGTGCGAGT,-0.02 kcal/mol
13,CTGAACACGTGAGGTG,0.24 kcal/mol
14,CTGGGCACGTGTCTTG,-0.06 kcal/mol
15,TCTGGCACGTGTGATA,-0.05 kcal/mol
16,GTAATCACGTGTCTGG,0.15 kcal/mol
17,TGTGCCACGTGGCTTG,-0.23 kcal/mol
18,CATGGCACGTGGCAGT,-0.21 kcal/mol
19,GCTAACACGTGTGGGG,0.1 kcal/mol
20,AGTTACACGTGGAAGA,0.25 kcal/mol
21,GATAGCACGTGTTAGT,-0.12 kcal/mol
22,TAGGGCACGTGGCAAT,-0.16 kcal/mol
23,CTGTGCACGTGTGGGA,0.01 kcal/mol
24,TATAGCACGTGCGTGT,-0.18 kcal/mol
25,GCGCGCACGTGGCGGG,-0.26 kcal/mol
26,TAAGTCACGTGTTGTT,0.17 kcal/mol

row,Sequence,relative binding free energy
1,AGTAGCACGTGCAGGG,-0.1 kcal/mol
2,TTAGGCACGTGCAGGA,-0.1 kcal/mol
3,CTGGGCACGTGCAGGG,-0.05 kcal/mol
4,TTTCTCACGTGTCGAG,0.27 kcal/mol
5,TCTAGCACGTGCTAGT,0 kcal/mol
6,TGTGGCACGTGAAAAT,0.15 kcal/mol
7,TAAGGCACGTGATGGG,0.08 kcal/mol
8,TCCGTCACGTGGGATG,0.09 kcal/mol
9,GGTGGCACGTGGAAAC,0.24 kcal/mol
10,TTATGCACGTGTTCTA,0 kcal/mol
11,AGAGCCACGTGGGGGA,-0.22 kcal/mol
12,TTATTCACGTGATAAG,0.3 kcal/mol
13,TATGTCACGTGTGGTG,0.14 kcal/mol
14,AGGCGCACGTGATGGG,0.07 kcal/mol
15,TTGTTCACGTGGCGCA,0.21 kcal/mol
16,TAAGTCACGTGCTGGT,0.1 kcal/mol
17,AGCAGCACGTGTTAGT,-0.11 kcal/mol
18,TTGTACACGTGGGATC,0 kcal/mol
19,TTTAACACGTGAGGGT,0.24 kcal/mol
20,TGGGTCACGTGTTTTC,0.09 kcal/mol
21,GATAGCACGTGTGCGG,0.11 kcal/mol
22,TTTATCACGTGTATAG,0.07 kcal/mol
23,CGTGGCACGTGTTTGT,-0.14 kcal/mol
24,TTTTGCACGTGTTCGA,-0.02 kcal/mol
25,TGCATCACGTGGCGGG,0.04 kcal/mol
26,GGCGGCACGTGGAGCG,-0.11 kcal/mol

row,Sequence,relative binding free energy
1,GTGGTCACGTGCGGGC,0.04 kcal/mol
2,GTAGACACGTGAGATG,0.34 kcal/mol
3,CGTGGCACGTGGAGGC,-0.12 kcal/mol
4,AGGTCCACGTGGTGGC,0.06 kcal/mol
5,TTTATCACGTGCGTTC,0.03 kcal/mol
6,AGTTGCACGTGTTCAG,0.1 kcal/mol
7,GTTCGCACGTGCGAGG,0.11 kcal/mol
8,AGATACACGTGTTAGG,-0.08 kcal/mol
9,AGGTACACGTGGTTTT,-0.04 kcal/mol
10,TGTTCCACGTGAATGG,0.19 kcal/mol
11,TTTATCACGTGACGGT,0.27 kcal/mol
12,CTAGGCACGTGAGTGC,0.25 kcal/mol
13,TTTTGCACGTGGAATA,0.11 kcal/mol
14,TATAACACGTGGTATA,-0.05 kcal/mol
15,ATGGGCACGTGTAGTC,-0.13 kcal/mol
16,ACTGGCACGTGAGTAG,0.09 kcal/mol
17,TGAGGCACGTGTGGTG,-0.04 kcal/mol
18,CTTGGCACGTGCGTAT,-0.09 kcal/mol
19,TGGGTCACGTGCATGT,-0.13 kcal/mol
20,GTAGCCACGTGTAGGA,0.05 kcal/mol
21,GGGCTCACGTGGTTGT,0.32 kcal/mol
22,TTGAACACGTGTTTCG,-0.01 kcal/mol
23,AGTGACACGTGGAGAT,0.04 kcal/mol
24,GGAGTCACGTGGCGCG,0.07 kcal/mol
25,ATGCTCACGTGTATGA,0.25 kcal/mol
26,CTAAGCACGTGTGTGA,-0.04 kcal/mol

row,Sequence,relative binding free energy
1,TTGTTCACGTGCTAGT,0.26 kcal/mol
2,GTCATCACGTGTCGTT,0.12 kcal/mol
3,AGTCTCACGTGGCTGG,0.19 kcal/mol
4,CGGCACACGTGGGGAG,-0.05 kcal/mol
5,TGTTTCACGTGTACTT,0.3 kcal/mol
6,TGGCACACGTGGCGTT,0.07 kcal/mol
7,CAGGGCACGTGAGTTG,0.04 kcal/mol
8,AATTGCACGTGGGGAT,-0.14 kcal/mol
9,AATAGCACGTGTTGTT,-0.13 kcal/mol
10,GAAGGCACGTGTTAGT,-0.09 kcal/mol
11,CTCGGCACGTGGGAAG,-0.08 kcal/mol
12,ATGTGCACGTGATGTG,0.04 kcal/mol
13,TAATGCACGTGGGCTG,-0.21 kcal/mol
14,TGAGGCACGTGTAGGC,-0.06 kcal/mol
15,TCTAGCACGTGTTGTA,-0.02 kcal/mol
16,TAATACACGTGGCGGG,0.06 kcal/mol
17,ATGTGCACGTGGAGGG,-0.08 kcal/mol
18,GATCTCACGTGGGTAG,0.09 kcal/mol
19,CTTCGCACGTGTGGTG,0 kcal/mol
20,TATGACACGTGTGTGA,0.02 kcal/mol
21,GTGTACACGTGTATAT,0.09 kcal/mol
22,GGGTTCACGTGCTTGG,0.2 kcal/mol
23,TCAGGCACGTGTAGTG,-0.09 kcal/mol
24,CTAGACACGTGGGATG,-0.12 kcal/mol
25,GTGGACACGTGTTAGT,0.03 kcal/mol
26,CTTATCACGTGAGGGG,0.41 kcal/mol

row,Sequence,relative binding free energy
1,GTTTTCACGTGATTTA,0.34 kcal/mol
2,ACTTGCACGTGTTTTG,-0.17 kcal/mol
3,GGCGTCACGTGGGATA,0.01 kcal/mol
4,TTTAGCACGTGCATGT,-0.14 kcal/mol
5,CATTGCACGTGTCTGG,-0.04 kcal/mol
6,GTTGTCACGTGATAAG,0.19 kcal/mol
7,GGAGTCACGTGTGCTG,0.06 kcal/mol
8,TTTCACACGTGTTATG,0.04 kcal/mol
9,TTACGCACGTGTGTGC,-0.01 kcal/mol
10,GCGGTCACGTGAGGGA,0.26 kcal/mol
11,TGCGTCACGTGGTGGT,0.03 kcal/mol
12,AGTTTCACGTGGCGGT,0.23 kcal/mol
13,TGGTGCACGTGCGATT,0.07 kcal/mol
14,TCTGTCACGTGTGAAG,0.12 kcal/mol
15,AGTTACACGTGATTTG,0.23 kcal/mol
16,TCACGCACGTGTGGTG,-0.08 kcal/mol
17,TAGGACACGTGGGTAC,-0.05 kcal/mol
18,TCAATCACGTGTGTTA,0.12 kcal/mol
19,TGATTCACGTGTATCA,0.2 kcal/mol
20,TGTATCACGTGAAGGT,0.24 kcal/mol
21,TCTTGCACGTGATAGG,0.12 kcal/mol
22,GGGAACACGTGCTGGT,-0.05 kcal/mol
23,GAGGACACGTGGAGTT,0.15 kcal/mol
24,ATCTACACGTGTTGGT,0.1 kcal/mol
25,CGATACACGTGTTGGG,-0.03 kcal/mol
26,GGGGCCACGTGTTGAT,-0.04 kcal/mol

row,Sequence,relative binding free energy
1,AGTTACACGTGATAGT,0.11 kcal/mol
2,TAATTCACGTGGTTGA,0.19 kcal/mol
3,TGCAGCACGTGTGGTC,-0.09 kcal/mol
4,ATCGGCACGTGGAAGT,0.02 kcal/mol
5,ATGGGCACGTGGTGTG,-0.19 kcal/mol
6,CGAGGCACGTGCTGGG,-0.18 kcal/mol
7,TTAGCCACGTGTGGTA,-0.14 kcal/mol
8,TCGGTCACGTGTTCTG,0.12 kcal/mol
9,GTCCACACGTGTTGGT,0.21 kcal/mol
10,TAGTTCACGTGAGAGC,0.56 kcal/mol
11,TTGTTCACGTGTTGGC,0.37 kcal/mol
12,GTTGGCACGTGTTAGC,-0.15 kcal/mol
13,TGTGCCACGTGGTCGT,-0.08 kcal/mol
14,ATTAGCACGTGGTTAC,0.04 kcal/mol
15,TAAAACACGTGTGGGG,0.18 kcal/mol
16,TGGGTCACGTGGGCCT,0.07 kcal/mol
17,CGTGTCACGTGGGCAT,0.02 kcal/mol
18,GTTGTCACGTGTGCGA,0.16 kcal/mol
19,AGGATCACGTGATGGT,0.31 kcal/mol
20,TTCATCACGTGTGTTG,0.19 kcal/mol
21,TATTCCACGTGGTTGT,0.02 kcal/mol
22,AGGGGCACGTGGCGTG,-0.14 kcal/mol
